# PubChem BioAssay AID686970 (National Center for Advancing Translational Sciences (NCATS), 2013)
# Out of some 360,000 compounds screened, about 6,000 (1.7%) were called active. This list was built around the results that the source calls inconclusive (neither active nor inactive); the mix of calls is not that of the screen. The call rests on the fitted dose curve; in most records, active means well fitted cell-killing curve with a large enough effect; inconclusive means small, poorly fitted or top-dose-only effect, or effect the other way; inactive means flat fitted curve, though single readings scatter. Potencies of inconclusive entries are left out as doubtful fits.
# Test: qHTS for induction of synthetic lethality in tumor cells producing 2HG: qHTS for the HT-1080-NT fibrosarcoma cell line;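 further: NT is the 2HG producing partner of a matched IDH1 knockdown line; nearly all actives have a fitted effect of over 55% in size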;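 on activity, negative = less viability: 0% = DMSO-treated cells and -100% = media-only wells without cells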
# Conditions: HT-1080-NT fibrosarcoma viability, CellTiter-Glo ATP luminescence, 48 h; activity, negative = less viability: at 46.1 µM (top of the series) unless noted
# Outline: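 HT-1080-NT; 750 cells/well; 5% FBS RPMI; 48 h compound, 37 degrees C; CellTiter-Glo luminescence; curve fitting and curve-class assignment.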
# Potency means the concentration at half of the fitted maximal effect; tags describe the fitted curve by direction and shape.
Structure (SMILES),Potency,"activity, negative = less viability"
COC(=O)c1c(C(=O)OC)n(CCCN)c2ccc(C)cc12,"inconclusive [cytotoxic, single point]",
COCCN1C(=O)N(c2ccc(OC)cc2)C(=O)C1CC(=O)Nc1cccc(F)c1 (stereo unspecified),,inactive: -6.66%
CC1(C(=O)NS(=O)(=O)c2ccccc2C(F)(F)F)CCN1C(=O)COc1ccc(Cl)cc1 (stereo unspecified),"inconclusive [rising, single point]",
COc1ccc(/C=N/NS(=O)(=O)c2ccc(F)cc2)cc1CN1CCSCC1,,inactive: 5.86%
COc1ccccc1Cc1c(-c2ccc(OC)c(OC)c2)nc2ccc(C)cn12,"inconclusive [cytotoxic, single point]",
O=C(NCCc1csc(-c2ccc(Cl)cc2)n1)c1ccco1,"inconclusive [cytotoxic, single point]",
CCN(CC)C1Oc2cc3c(cc2C(c2cc(OC)c(OC)c(OC)c2)C1C)OCO3 (stereo unspecified),active: 1.84 µM,
Cc1ccc(/C=N/NC(=O)c2n[nH]c3c2CCCC3)cc1,active: 0.164 µM,
CCOc1ccc2nc(NC(=O)CSc3nc4cccnc4n3C)sc2c1,"inconclusive [cytotoxic, single point]",
Cc1ccc(C)c(S(=O)(=O)Nc2ccc3scnc3c2)c1,"inconclusive [cytotoxic, partial curve]",
CCSc1ncc(/C=N/Nc2ccc([N+](=O)[O-])cc2)n1C,active: 13 µM,
O=C(/C=C/c1ccccc1)NC(=S)NNC(=O)Cc1cccs1,"inconclusive [cytotoxic, partial curve]",
COc1cc(/C=C/C(=O)OCC(=O)Nc2ccc(Cl)cn2)ccc1O,,inactive: 2.38%
CCOC(=O)[C@@H]1[C@H]2COc3cc(OC)ccc3[C@@H]2N2C(=O)N(c3ccc(F)cc3)C(=O)[C@@]12C,,inconclusive: 30.5%
COc1ccc(Cl)cc1NC(=O)C1CCN(S(C)(=O)=O)CC1,,inactive: -1.59%
Cc1ccc(-n2nc3c(c2NC(=O)c2ccco2)CS(=O)C3)cc1 (stereo unspecified),,inactive: -5.41%
CC(=O)N1c2ccc(S(=O)(=O)NCC3CCC(C(=O)Nc4cc(C)ccn4)CC3)cc2CC1C (stereo unspecified),"inconclusive [cytotoxic, single point]",
CCCCCCCC(=O)N1CCN(c2cc3c(cc2F)c(=O)c(C(=O)O)cn3CC)CC1,,inactive: -1.18%
CC/C(=N\NC(=O)CSc1ncccn1)c1ccc2c(c1)OCCO2,,inactive: 1.17%
CCN1CCN(Cc2ccc(NC(=O)c3ccc(C)c(NC(=O)c4csc(-c5ccncc5)n4)c3)cc2C(F)(F)F)CC1,"inconclusive [cytotoxic, single point]",
COc1cccc(NC(=O)CN(C)C(=O)Cn2cnc3ccccc3c2=O)c1,,inactive: -12.5%
CC(C)=C[C@H]1C[C@H](C)[C@H]2CC[C@H](C)c3c(O[C@@H]4OC[C@@H](O)[C@H](O)C4O)c(O)c(C)c1c32 (stereo partly specified),"inconclusive [cytotoxic, single point]",
Cc1ccc(NC(=O)c2cc(=O)[nH]c3ccccc23)cc1C,"inconclusive [cytotoxic, single point]",

Structure (SMILES),Potency,"activity, negative = less viability"
CC(C)[C@H](NC(=O)c1ccc(C(C)(C)C)cc1)C(=O)N1CCN(Cc2ccc3c(c2)OCO3)CC1,"inconclusive [cytotoxic, single point]",
Brc1ccc([C@H]2CN3CCSC3=N2)cc1,"inconclusive [rising, single point]",
COc1ccc(Br)cc1CN(C)CC(=O)NCCc1ccccc1,,inactive: -7.11%
COc1ccc2c(c1)C(C)=CC(C)(C)N2S(=O)(=O)c1ccc(NC(C)=O)cc1,"inconclusive [cytotoxic, full curve]",
O=C(Nc1cccc(O)c1)c1cc(-c2ccc3c(c2)OCO3)on1,"inconclusive [cytotoxic, partial curve]",
CC(C)(C)NC(=O)C(OC(=O)c1cccs1)c1ccc(F)cc1 (stereo unspecified),"inconclusive [rising, single point]",
COc1ccc(-c2csc(NC(=O)c3ccccc3NS(=O)(=O)c3ccc(F)c(F)c3)n2)cc1,"inconclusive [cytotoxic, full curve, poor fit]",
O=C(Nc1ccc(F)cc1)N1CCN(c2ccc3nnc(-c4ccc(F)cc4)n3n2)CC1,"inconclusive [cytotoxic, single point]",
COc1ccc(N=Nc2ccc(N)nc2N)cc1,"inconclusive [rising, full curve, poor fit]",
O=C(Nc1ccc(F)c(Cl)c1)c1ccc2nc([C@@H]3O[C@H](CO)[C@H](O)[C@H](O)[C@H]3O)[nH]c2c1,"inconclusive [rising, full curve]",
CC(=O)c1c(OC(=O)c2ccccc2)c2ccccc2n1C,"inconclusive [cytotoxic, single point]",
C/C(=N\Nc1ncnc2sc(C)c(C)c12)c1ccccn1,active: 0.92 µM,
C[C@H](NC(=O)c1nc[nH]c1C(=O)NC(c1ccccc1)c1ccccc1)C(=O)OC(C)(C)C,"inconclusive [cytotoxic, single point]",
CCOC(=O)c1cccc(NC(=O)CSc2nnc(C)n2Cc2ccccc2)c1,,inconclusive: -33.7% [cytotoxic]
CN(C)CC/C=C1/c2cc(F)ccc2Sc2ccc(Cl)cc21,active: 23.1 µM,
Nc1nc(Cl)cc(N2CCC(c3cc(-c4ccc(Cl)cc4)n[nH]3)CC2)n1,active: 22.4 µM,
Cc1c(Cl)cccc1NC(=S)NC1CCN(C(C)C)CC1,,inactive: -8.23%
O=C(NCC1CC1)Nc1ccccc1F,,inactive: 1.42%
CCCCn1c(=O)n(CC(=O)Nc2ccc(C)c(Cl)c2)c(=O)c2c1ncn2Cc1ccco1,,inactive: -6.24%
Cc1ccc(CCNC(=O)C2CCN(S(=O)(=O)N3CCOCC3)CC2)cc1,,inactive: 9.16%
Cc1onc(-c2ccccc2Cl)c1C(=O)OCC(=O)Nc1cccc(S(=O)(=O)N2CCOCC2)c1,"inconclusive [cytotoxic, single point]",
COc1ccc(Cc2noc(=O)[nH]2)cc1,,inactive: 0.383%
CCOc1ccccc1NC(=O)CCSc1nc2n[nH]c(C)c2c(=N)n1-c1ccccc1Cl,"inconclusive [cytotoxic, single point]",
